# From PubChem BioAssay AID686979 (National Center for Advancing Translational Sciences (NCATS), 2013)
# Among all 420,000 compounds or so, about 50,000 (12%) were called active. Inconclusive results, whose numbers are uncertain, are shown with a selection of clear calls. The call rests on the fitted dose curve; in most records, active means well fitted inhibition curve with a large enough effect; inconclusive means small, poorly fitted or top-dose-only effect; inactive means flat fitted curve, though single readings scatter. No potency is given beside an inconclusive call; the fits are too rough.
# Experiment: qHTS for Inhibitors of human tyrosyl-DNA phosphodiesterase 1 (TDP1): qHTS in cells in presence of CPT; further: nearly all actives have a fitted effect of over 55% in size
# Settings: chicken DT40 Tdp1-/-;hTDP1 cells + 20 nM CPT, ATP luminescence, 48 h; activity change, negative = growth inhibition: at 46.2 µM (top of the series) unless noted
# Outline: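 Chicken DT40 Tdp1-/- cells complemented with human TDP1, 400 cells/well, exposed to compounds plus 20 nM camptothecin for at least 48 h at 37 C; viability read as ATP content by CellTiter-Glo luminescence.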
# On the % scale 0 is the no-effect control and ±100 the full control effect; potency means the concentration at half of the fitted maximal effect; tags describe the fitted curve by direction and shape.
SMILES,Potency,"activity change, negative = growth inhibition"
Cc1ccc2nc(-c3ccc(SCC(=O)Nc4nnc(C)s4)nc3)[nH]c2c1,"inconclusive [inhibitor, partial curve]",
COc1cc(OC)c(OC)cc1C=NCC1(c2ccccc2)CCCC1,inactive,
CCOC(=O)c1ccc(-c2ccc3c(c2)CCC3)nc1C,"inconclusive [inhibitor, single point]",
CNC(=O)c1c(NC(=O)C(C)C)sc2c1CCC2,inactive,
Cc1ccc(C(=O)N2CC(=O)Nc3ccc(C)cc3C2c2ccccc2)cc1 (stereo unspecified),"inconclusive [inhibitor, single point]",
COc1ccccc1Nc1nnc(SCc2nnc(-c3cc(OC)c(OC)c(OC)c3)o2)s1,active: 20.6 µM,
CCC(CO)Oc1cc(NC(=O)c2ccccc2[N+](=O)[O-])c2ncn(C(C)C)c2c1 (stereo unspecified),active: 16.4 µM,
CCOC(=O)C1(Cc2cccc(OC)c2)CCN(C(C)COC)CC1 (stereo unspecified),"inconclusive [inhibitor, single point]",
Cc1ccsc1C(=O)OCC(=O)Nc1cccc(S(=O)(=O)N2CCCCC2)c1,"inconclusive [inhibitor, single point]",
CCN(CC)C(=O)CSc1nc(-c2ccco2)cc(C(F)(F)F)c1C#N,"inconclusive [inhibitor, single point]",
Fc1cccc(Cc2c(-c3cccc(Cl)c3)nc3ccc(Br)cn23)c1,"inconclusive [inhibitor, single point]",
Oc1cccc2cnccc12,"inconclusive [inhibitor, single point]",
CC(Oc1ccc(Cl)cc1Cl)C(=O)Nc1ccc(N2CCN(C)CC2)cc1 (stereo unspecified),"inconclusive [inhibitor, partial curve]",
O=C(O)c1cc(-c2ccco2)nn1-c1ccc(Cl)cc1,,inconclusive: -8.54% [inhibitor]
O=C(NCc1ccc(Cl)cc1)C(=O)NCC(c1cccs1)S(=O)(=O)c1cccs1 (stereo unspecified),inactive,
O=[N+]([O-])c1ccc(Cl)c(/C=N/n2c(C3CCCCC3)n[nH]c2=S)c1,"inconclusive [inhibitor, single point]",
COC(=O)C1=C(C)NC(C)=C(C(=O)OC)C1C(=O)OC(C)C(=O)c1ccccc1 (stereo unspecified),inactive,
Clc1ccc2c(N3CCCC3)ccnc2c1,"inconclusive [inhibitor, partial curve]",
CCOc1ccc(CCNC(=O)CN2C(=O)NC(CCSC)C2=O)cc1OCC (stereo unspecified),inactive,
COc1cc(OC)c(OC)cc1CNCC1COc2ccccc2O1 (stereo unspecified),"inconclusive [inhibitor, single point]",
CCOC(=O)c1ccc2nc(NC(NC(C)=O)(C(=O)OC)C(F)(F)F)sc2c1 (stereo unspecified),inactive,
COc1cc(-c2noc(CCC(=O)NC3CCCC3)n2)cc(OC)c1OC,"inconclusive [inhibitor, single point]",
Cc1ccc(S(=O)(=O)c2ccc([N+](=O)[O-])o2)cc1,active: 0.0326 µM,
COc1ccc(S(=O)(=O)N2CCCCC2)cc1NC(=O)CNc1ccc(F)cc1C,"inconclusive [inhibitor, single point]",

SMILES,Potency,"activity change, negative = growth inhibition"
Cc1ccc(-c2nc3cccnc3s2)cc1NC(=O)C1c2ccccc2Oc2ccccc21,"inconclusive [inhibitor, single point]",
CN(Cc1ccccc1)C(=O)c1ccc(NC(=O)Cc2ccc(NC(=O)C3CCN(S(=O)(=O)c4cccc([N+](=O)[O-])c4)CC3)cc2)cc1,active: 13 µM,
COc1ccccc1N(CC(=O)NCc1ccccc1)S(=O)(=O)c1cccs1,"inconclusive [inhibitor, partial curve, poor fit]",
CN(c1ccccc1)S(=O)(=O)c1ccc(NC(=O)c2cc(=O)c3ccccc3o2)cc1,active: 13 µM,
CCC1(c2ccccc2)NC(=O)N(CC(=O)Nc2cc(S(=O)(=O)N3CCCCC3)ccc2N(C)C)C1=O (stereo unspecified),"inconclusive [inhibitor, single point]",
COc1ccc(-c2cc(NC(C)=O)c3ncc(-c4ccccc4)n3c2)c(OC)c1,"inconclusive [inhibitor, single point]",
COc1cccc(S(=O)(=O)NCc2ccc(C(=O)N3CCN(c4ccccc4)CC3)cc2)c1,active: 16.4 µM,
Cc1oc(C)c2c(=O)cc(-c3ccc4c(c3)OCO4)cc(OC(=O)c3cccc(Br)c3)c12,"inconclusive [inhibitor, single point]",
COc1ccc(CCNC(=O)c2cc(S(=O)(=O)N3CCCCC3)ccc2Cl)cc1,active: 25.9 µM,
Cc1ccc(S(=O)(=O)N(C)C)cc1NC(=S)NC(C)CCC(C)C (stereo unspecified),active: 23.1 µM,
Cc1cc2c(cc1C)C(=O)C(=O)N2,"inconclusive [inhibitor, single point]",
C[C@@H]1CN([C@@H](C)CO)C(=O)Cc2cc(NC(=O)Nc3cccc4ccccc34)ccc2O[C@@H]1CN(C)Cc1ccc(C(F)(F)F)cc1,"inconclusive [inhibitor, single point]",
COc1ccc2cc(C#N)c(SCC(=O)N3CC(=O)Nc4ccccc43)nc2c1,inactive,
O=C(NC(=S)Nc1ccccc1N1CCOCC1)c1ccc(-c2cc(Cl)ccc2Cl)o1,"inconclusive [inhibitor, partial curve, poor fit]",
COc1ccccc1NS(=O)(=O)c1cc(NC(=O)C(C)(C)C)ccc1N1CCOCC1,"inconclusive [inhibitor, single point]",
Cc1ccc(NC(=S)NC2CC3CCCC(C2)N3Cc2cccs2)cc1 (stereo unspecified),"inconclusive [inhibitor, single point]",
CC1CC(C)CN(CC(=O)c2c[nH]c3ccccc23)C1 (stereo unspecified),"inconclusive [inhibitor, single point]",
Cc1ccc(S(C)(=O)=N/C=C2\C(=O)c3sccc3N(C)S2(=O)=O)cc1 (stereo unspecified),inactive,
CCOC(=O)[C@]12CCC=C1N(Cc1ccc3c(c1)OCO3)C(=O)[C@H](CC(=O)NCc1ccc(OC)c(OC)c1)C2,"inconclusive [inhibitor, single point]",
COc1ccc2c(c1)C(=O)CC2,inactive,
Cc1nn(-c2ccccc2)c(=S)n1-c1ccccc1,active: 20.6 µM,
COc1ccc(Nc2cc(C(=O)NCCCN3CCN(c4ccc(OC)cc4)CC3)c3ccccc3n2)cc1,active: 8.2 µM,
NNC(=O)c1ccc(Cn2cc(Br)cn2)cc1,inactive,
COc1cccc(-c2nc(-c3ccccc3)no2)c1,inactive,

SMILES,Potency,"activity change, negative = growth inhibition"
CCOC(=O)C1=C(C)OC(N)=C(C#N)C1c1cccs1 (stereo unspecified),inactive,
COc1cccc(-c2cc3nc4c(c(N5CCC6(CC5)OCCO6)n3n2)CCC4)c1,active: 18.4 µM,
Cc1nc(C)c(-c2ccc(SCC(=O)Nc3cccc(Cl)c3)nn2)s1,active: 25.9 µM,
Cc1ccc(CNC(=O)c2coc(=O)c3ccccc23)o1,"inconclusive [inhibitor, single point]",
Cc1ccccc1N1CN(Cc2ccco2)CNC1=S,inactive,
COc1ccc2cc(C)c3nnc(SCC(=O)Nc4nc(-c5ccccc5)cs4)n3c2c1,"inconclusive [inhibitor, partial curve]",
Cn1c2ccccc2c(=O)c2ccc(C#Cc3ccccn3)cc21,"inconclusive [inhibitor, single point]",
CC(C)(C)[C@@H]1C=C(C(=O)O)O[C@H](OCc2ccc(CO)cc2)C1,,inconclusive: -32.1% [inhibitor]
O=C1CSc2ccccc2N1,"inconclusive [inhibitor, full curve, poor fit]",
COc1cccc(NC(=O)CN2C(=O)NC(CCc3ccccc3)C2=O)c1 (stereo unspecified),"inconclusive [inhibitor, single point]",
Cc1cc(NC(=O)c2cccc(Cl)c2)ccc1-c1cc2ccccc2oc1=O,"inconclusive [inhibitor, full curve, poor fit]",
C=CCc1cc(Cl)ccc1OC(=O)Nc1cccc(Cl)c1,"inconclusive [inhibitor, single point]",
C=CCN1C(=O)CN=C1Nc1ccc(F)cc1,inactive,
Nc1nc(N)c(Br)c(Nc2ccc(Cl)c(Cl)c2)n1,"inconclusive [inhibitor, partial curve]",
Cc1noc(-c2ccc(N3CCCCC3)c([N+](=O)[O-])c2)n1,"inconclusive [inhibitor, single point]",
Cc1ccc(CNS(=O)(=O)c2ccc3[nH]c4c(c3c2)CCCC4)cc1,inactive,
Cc1cc(F)ccc1NS(=O)(=O)c1ccc(-n2cccn2)cc1,active: 14.6 µM,
CCCCc1nn2c(=O)cc(COC(=O)c3ccc(NC(=O)c4ccccc4C)cc3)nc2s1,active: 20.6 µM,
CCCCCNC(=O)c1nc(-c2c(F)cccc2F)oc1-c1ccccc1,"inconclusive [inhibitor, single point]",
Cc1cccc(C)c1OC(=O)CN(c1ccc(Cl)cc1)S(C)(=O)=O,"inconclusive [inhibitor, partial curve]",
CCOC(=O)c1cnc(-n2nc(C)cc2C)nc1N1CC(C)OC(C)C1 (stereo unspecified),"inconclusive [inhibitor, single point]",
O=c1[nH]c(CN2CCN(S(=O)(=O)c3ccc(Cl)cc3)CC2)nc2cc(Cl)ccc12,"inconclusive [inhibitor, single point]",
COc1ccc(-c2noc(-c3ccc(N4CCN(c5ccccc5)CC4)c([N+](=O)[O-])c3)n2)cc1OC,active: 23.1 µM,
